Measured values published in article PMC4336329 (PLoS ONE, 2015).
The campaign covered roughly 310,000 compounds. About 2,200 (0.71%) showed an effect of 50% or more. The effect is printed as a negative number. Some of the results follow.

molecular target: human ether-à-go-go-related gene (hERG) potassium channel (human, UniProt Q12809); test: primary screen, population patch clamp on CHO cells stably expressing hERG
Sequence (Q12809 whole entry, looked up): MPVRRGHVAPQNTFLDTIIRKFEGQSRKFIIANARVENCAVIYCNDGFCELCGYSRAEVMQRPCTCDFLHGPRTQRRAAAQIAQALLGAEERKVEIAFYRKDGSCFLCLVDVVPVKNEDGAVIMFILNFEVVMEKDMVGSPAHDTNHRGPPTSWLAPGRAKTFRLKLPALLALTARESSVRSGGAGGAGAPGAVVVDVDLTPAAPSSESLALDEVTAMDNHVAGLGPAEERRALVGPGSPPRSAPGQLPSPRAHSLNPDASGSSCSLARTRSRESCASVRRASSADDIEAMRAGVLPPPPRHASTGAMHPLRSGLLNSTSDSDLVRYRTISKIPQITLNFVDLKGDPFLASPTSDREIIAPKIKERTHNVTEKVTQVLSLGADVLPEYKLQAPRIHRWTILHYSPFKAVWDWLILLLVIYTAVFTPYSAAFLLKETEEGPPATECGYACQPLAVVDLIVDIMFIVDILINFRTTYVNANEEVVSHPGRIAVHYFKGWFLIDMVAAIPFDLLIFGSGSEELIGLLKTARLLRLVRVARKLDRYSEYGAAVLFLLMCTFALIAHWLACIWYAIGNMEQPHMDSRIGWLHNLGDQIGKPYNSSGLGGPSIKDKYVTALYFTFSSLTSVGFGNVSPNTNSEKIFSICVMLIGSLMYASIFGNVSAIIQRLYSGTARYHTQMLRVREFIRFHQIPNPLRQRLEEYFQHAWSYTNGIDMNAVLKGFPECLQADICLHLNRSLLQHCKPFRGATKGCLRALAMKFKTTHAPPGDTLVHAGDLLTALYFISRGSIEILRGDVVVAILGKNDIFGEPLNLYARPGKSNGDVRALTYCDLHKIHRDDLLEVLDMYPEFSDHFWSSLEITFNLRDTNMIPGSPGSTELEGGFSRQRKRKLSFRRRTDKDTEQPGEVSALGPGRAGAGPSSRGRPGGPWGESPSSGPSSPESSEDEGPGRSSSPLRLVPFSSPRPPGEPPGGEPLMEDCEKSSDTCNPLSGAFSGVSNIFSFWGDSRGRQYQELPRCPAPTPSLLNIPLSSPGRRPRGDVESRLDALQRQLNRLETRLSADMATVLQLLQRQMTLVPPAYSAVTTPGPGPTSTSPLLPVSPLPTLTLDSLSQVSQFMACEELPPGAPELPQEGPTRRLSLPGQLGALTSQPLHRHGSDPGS

Row | Compound | hERG current change (%, negative = inhibition) at 1uM [%]
1 | COc1cccc(/C(O)=C2\C(=O)C(=O)N(c3ccccn3)C2c2ccccc2OC)c1 (stereo not drawn) | 10.7
2 | CCCCN(C(=O)NC(=O)Nc1ccccc1C)S(C)(=O)=O | 9.96
3 | CCC(C)C(NC(=O)C1CCC(C)CC1)C(=O)NCc1ccco1 (stereo not drawn) | 14.5
4 | COc1ccc(N2CCN(C(=O)CCNS(=O)(=O)c3ccc(Br)s3)CC2)cc1 | -1.67
5 | O=c1c2sccc2nc(SCc2cc(=O)n3cc(Cl)ccc3n2)n1Cc1ccccn1 | 7.01
6 | CC1=NN(Cc2c[nH]c3ccccc23)C(C)(C)C1 | 2.18
7 | CC(=O)NCCOc1nc(N(C)C)nc(N2CCOCC2)n1 | 6.42
8 | CCOc1ccc(C(=O)Nc2ccc(NC(=O)c3cccs3)cc2)cc1[N+](=O)[O-] | -6.74
9 | CCOC(=O)/C(C(N)=NCC(C)C)=C(/O)c1ccccc1 | 11.9
10 | O=S1(=O)C=C(SCc2cccc(Cl)c2)Nc2ccccc21 | -3.35
11 | Cl.Fc1ccccc1COc1ccc(Br)cc1CNCc1cccnc1 | -12.2
12 | CCOC(=O)c1ccc(N(C(=O)c2ccco2)C(C(=O)NC2CCCC2)c2ccncc2)cc1 (stereo not drawn) | 6.2
13 | COc1ccc(OC)c(NC(=O)c2ccc3c(c2)C(=O)N(c2ccc(OC(C)=O)cc2)C3=O)c1 | 10.8
14 | NS(=O)(=O)c1cc(C(=O)O)cc(N2CCCC2)c1Oc1ccccc1 | 2.3
15 | CCOc1ncccc1C(=O)OCc1cn2cc(Cl)ccc2n1 | -3.62
16 | O=C(CN1C(=O)C2C3CCC(C3)C2C1=O)N1CCN(Cc2ccccc2)CC1 (stereo not drawn) | 1.96
17 | O=C(Nc1nnc(-c2cccs2)o1)c1cccc(C(F)(F)F)c1 | 10.4
18 | CCN(CC)CCOC(=O)c1c(C)oc2ccc(OC)cc12.Cl | -19.1
19 | Nn1c(COc2ccccc2F)nnc1SCC(=O)NC1CC1 | 10.8
20 | Cn1cc(CN2C[C@H]3CC[C@H]2C3)c(-c2ccccc2F)n1 | -1.17
21 | CC(C)(C)N1CC(C(=O)Nc2cccc(Cl)c2Cl)CC1=O (stereo not drawn) | 14.2
22 | COc1ccc2ccc(Oc3ncccn3)cc2c1 | 0.277
23 | CCOC(=O)c1sc(NC(C)=O)c(C(=O)OCC)c1C | 4.13

Row | Compound | hERG current change (%, negative = inhibition) at 1uM [%]
24 | CC(C)OCCCNC(=O)c1ccc(Br)cc1 | -3.73
25 | COc1ccc(C(=O)C2C(c3ccc(-c4ccccc4[N+](=O)[O-])o3)NC(=O)NC2(O)C(F)(F)F)cc1 (stereo not drawn) | 10.6
26 | CCCOc1ccccc1-c1nc2n[nH]nc2c(=O)[nH]1 | -14.2
27 | Cc1cc(OCC(=O)N(Cc2cccs2)C2CCS(=O)(=O)C2)ccc1Cl (stereo not drawn) | 12.9
28 | N#CCC(=N)N1CCN(c2ccccc2Cl)CC1 | 2.37
29 | Cn1c(NNC(=O)c2ccccc2F)cc(=O)n(C)c1=O | 11.5
30 | C=CCOc1c(CCC)cc(CCC)cc1C(N)=O | 0.27
31 | COc1ccc(/C=C/C(=O)O)cc1COc1ccccc1C | -0.653
32 | COc1ccc(CN2C(=O)CN=C2Nc2cc(C)ccc2C)cc1.Cl | 11.2
33 | COc1ccc(C2NC(=O)C(C#N)=C(S)N2c2ccccc2)cc1OC (stereo not drawn) | 7.56
34 | CCOC(=O)c1c(C)n(C(C)C)c2ccc(OC)cc12 | 10.2
35 | O=C(C1CCN(S(=O)(=O)c2ccc(Cl)cc2)CC1)N1CCN(c2ccccn2)CC1 | -22.6
36 | CCn1c(CO)nc2c1c(=O)[nH]c(=O)n2Cc1ccccc1 | 10.7
37 | Cc1cc(OCC(=O)C(C)(C)C)c2c(-c3ccccc3)cc(=O)oc2c1 | 2.99
38 | CCc1cc2cc(C)cc(C)c2nc1SCC(=O)Nc1cc(C)on1 | 7.87
39 | Cc1sccc1/C=N/NC(=O)c1cccc2ccccc12 | 11.9
40 | O=C(N/N=C/c1cnc(N2CCCCC2)s1)c1ccc(Cl)cc1 | 6.42
41 | CC(c1ccccc1)n1c(CCCO)nc2ccccc21 (stereo not drawn) | 7.24
42 | NC(=O)CSC1=N/C(=C\c2ccco2)C(=O)N1c1ccc(OC(F)F)cc1 | 17.2
43 | O=C1C(Cl)=C(Nc2ccc(F)cc2)C(=O)N1CCc1ccccc1 | 10.9
44 | CCOC(=O)C1CCCN1C(=O)c1ccc(OC)c(Br)c1 (stereo not drawn) | 6.9
45 | O=C(NC12CC3CC(CC(C3)C1)C2)c1cc([N+](=O)[O-])ccc1Cl | 11.7
